# In publication PMC4336329 (PLoS ONE, 2015):
# The whole screen tested about 310,000 compounds, of which about 14,000 (4.5%) showed an effect of 50% or more. The effect is printed as a negative number. Some of the results follow.
# Molecular target: human ether-à-go-go-related gene (hERG) potassium channel (human, UniProt Q12809)
# Test: primary screen, population patch clamp on CHO cells stably expressing hERG
# 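Note: peak tail current of the secondary pulse compared with the same well before compound.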
# Chain of human ether-à-go-go-related gene (hERG) potassium channel (Q12809 whole entry, looked up): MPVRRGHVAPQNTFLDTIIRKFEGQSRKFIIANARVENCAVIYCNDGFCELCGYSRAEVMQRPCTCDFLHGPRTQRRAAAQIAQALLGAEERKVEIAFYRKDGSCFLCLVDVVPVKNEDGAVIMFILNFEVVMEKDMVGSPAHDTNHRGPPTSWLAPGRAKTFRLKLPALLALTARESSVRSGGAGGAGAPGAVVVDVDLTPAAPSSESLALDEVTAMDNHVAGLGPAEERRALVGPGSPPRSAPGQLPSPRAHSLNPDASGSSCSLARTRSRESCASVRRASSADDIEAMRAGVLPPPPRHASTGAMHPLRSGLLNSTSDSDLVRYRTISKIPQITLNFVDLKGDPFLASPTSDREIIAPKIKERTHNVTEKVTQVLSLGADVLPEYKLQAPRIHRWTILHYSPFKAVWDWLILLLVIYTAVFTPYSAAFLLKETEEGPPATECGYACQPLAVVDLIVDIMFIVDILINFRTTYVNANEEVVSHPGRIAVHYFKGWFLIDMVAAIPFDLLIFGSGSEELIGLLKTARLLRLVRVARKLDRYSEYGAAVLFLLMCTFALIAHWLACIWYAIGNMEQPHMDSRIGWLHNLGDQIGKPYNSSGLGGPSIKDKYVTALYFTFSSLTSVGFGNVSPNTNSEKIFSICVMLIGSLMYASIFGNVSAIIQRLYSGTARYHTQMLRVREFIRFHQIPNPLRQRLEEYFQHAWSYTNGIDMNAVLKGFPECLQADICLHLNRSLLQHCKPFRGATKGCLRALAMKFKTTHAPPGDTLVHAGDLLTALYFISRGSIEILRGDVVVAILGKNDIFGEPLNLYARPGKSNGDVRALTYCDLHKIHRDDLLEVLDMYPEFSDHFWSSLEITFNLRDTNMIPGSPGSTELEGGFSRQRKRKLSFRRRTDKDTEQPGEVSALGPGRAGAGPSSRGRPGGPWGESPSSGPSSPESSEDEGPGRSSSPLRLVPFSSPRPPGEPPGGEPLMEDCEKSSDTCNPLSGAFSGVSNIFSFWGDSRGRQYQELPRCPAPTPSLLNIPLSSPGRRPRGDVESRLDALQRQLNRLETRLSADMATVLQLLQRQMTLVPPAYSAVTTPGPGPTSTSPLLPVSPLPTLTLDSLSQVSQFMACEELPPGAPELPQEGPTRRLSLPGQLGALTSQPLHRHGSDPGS
row,Structure (SMILES),"hERG current change (%, negative = inhibition) at 10uM"
1,COc1nc(NC2CCCCC2)nc(N2CCCCCC2)n1,4.84%
2,COc1cccc(CNC(=O)[C@H](C)NC(=O)C2CCN(S(=O)(=O)c3ccccc3)CC2)c1,8.44%
3,CC(=O)Nc1ccc(C(=O)NNC(=O)Cc2ccccc2)cc1,18.5%
4,Cc1ccc(NC(=O)c2cc(-c3ccco3)on2)cc1,4.51%
5,C=CCn1c(N)cc(=O)nc1SCC(=O)Nc1ccccc1C(N)=O,26.2%
6,CCN(CC)CCn1c(SCC(=O)Nc2ccc(F)cc2)nc2c(sc3ccccc32)c1=O.Cl,-14.9%
7,CC1CCOC(c2coc3ccccc3c2=O)O1 (stereo not drawn),-0.768%
8,O=C(CCNS(=O)(=O)c1ccccc1C(F)(F)F)NCCCSc1ccccc1,-18.1%
9,CCOC(=O)c1ccc(CNC(=O)C(Cc2c[nH]c3ccccc23)NC(C)=O)o1 (stereo not drawn),-1.24%
10,CCC(C)NC(=O)c1oc2ccc(S(=O)(=O)N3CCC4(CC3)OCCO4)cc2c1C (stereo not drawn),-1.87%
11,O=C(O)c1ccc(N=Cc2c(O)ccc3oc4c(c23)CCCC4)cc1,1.8%
12,CC(C)(C)c1cc(NS(=O)(=O)c2ccc3c(c2)OCCO3)on1,10.9%
13,CCOC(=O)CNC(=O)CSc1nc2cccnc2n1CC,-7.04%
14,CCc1cccc(NC(=O)C2CCCN(S(=O)(=O)c3ccc4[nH]c(=O)ccc4c3)C2)c1 (stereo not drawn),8.32%
15,CN(Cc1cccs1)C(=O)C1CC(=O)N(Cc2ccccc2)C1 (stereo not drawn),-4.68%
16,Cc1ccc2nc(SCC(=O)N(CC(C)C)c3c(N)n(Cc4ccccc4)c(=O)[nH]c3=O)[nH]c2c1,11.2%
17,COc1cccc(OCC(O)CN2CCN(CCO)CC2)c1.Cl (stereo not drawn),15.7%
18,CCN(CC)c1ccc(O)c(C=Nc2ccc(C)c(C)c2)c1,7.46%
19,CCc1ccc(C(=O)NNC(=O)c2cc(S(=O)(=O)N(C)C)ccc2N2CCCC2)cc1,1.21%
20,CC1CN(C(=O)c2scc3c2OCCO3)CC(C)O1 (stereo not drawn),13.9%
21,Cc1ccc(N(C(C)C(=O)Nc2ccc(S(=O)(=O)N3CCOCC3)cc2)S(C)(=O)=O)cc1 (stereo not drawn),7.56%
22,Cc1cc2oc(=O)cc(CN3CCOCC3)c2c(C)c1Cl,-6.49%

row,Structure (SMILES),"hERG current change (%, negative = inhibition) at 10uM"
1,Cc1ccc(NS(=O)(=O)c2ccc3[nH]c(=O)oc3c2)cc1Cl,-0.996%
2,CCNS(=O)(=O)c1ccc(CCC(=O)N2CCN(Cc3ccccc3)CC2)cc1,-40.7%
3,OCCOCCn1c(C(CO)Nc2nc(-c3ccc(F)cc3)cs2)nc2ccccc21 (stereo not drawn),-29.4%
4,COc1ccc2oc(C(=O)N(C)CCOc3ccc(Cl)cc3)c(C)c2c1,-49.7%
5,CCn1nc(C(=O)OCC(=O)Nc2nc(-c3ccc(OC)cc3)cs2)c2ccccc2c1=O,22.9%
6,CC(C)CC(=O)Nc1ncnc2c1C(=O)CC(C)(C)C2,-0.157%
7,O=C(NCCCNC(=O)c1ccc(Cl)cc1Cl)c1ccccn1,-2.08%
8,COc1ccccc1-n1c(SCC(=O)c2ccc(O)cc2O)nc2cc([N+](=O)[O-])ccc21,11.4%
9,CCOC(=O)c1cncc(C(=O)O)c1,10.2%
10,Cc1ccc(S(=O)(=O)c2cc3ccccc3oc2=O)cc1,3.76%
11,CCCn1c2ccc(C)cc2c2n[nH]c(=S)nc21,12.5%
12,Cl.O=C(NCCCN1CCOCC1)c1c(O)c2ccccc2[nH]c1=O,-47.9%
13,COc1ccc(S(=O)(=O)Nc2ccc3cn[nH]c3c2)cc1[N+](=O)[O-],-3.17%
14,COc1ccc(C(OC(=O)c2c(C)noc2C)C(=O)NC2CCCC2)cc1 (stereo not drawn),-2.68%
15,COc1ccc(/C=N\N=C2/SC(CC(=O)O)C(=O)N2c2ccc(O)cc2)cc1OC (stereo not drawn),-0.927%
16,CCOC(=O)C1=C(CNCCOc2ccc(OC)cc2)NC(=O)NC1c1ccc2c(c1)OCO2 (stereo not drawn),-11.6%
17,CCc1cc2c(NCCC(=O)O)nc(C)nc2s1,24.2%
18,CCOc1ccccc1N1CCN(C(=S)NCc2ccco2)CC1,-14.7%
19,CC(=O)Oc1ccc(C(=O)Nc2cc(C)ccc2NC(=O)COc2ccccc2)cc1,6.98%
20,Cc1ccc(-n2c(N)c(C(=O)N3CCN(C)CC3)sc2=S)cc1,-30.4%
21,COc1ccc(NC(=O)Nc2ccc(N3CCCC3=O)cc2)cc1OC,6.13%
22,CC(/C=C/c1ccccc1)=N\NC(=O)C1CC1(C)c1ccccc1 (stereo not drawn),-2.18%

row,Structure (SMILES),"hERG current change (%, negative = inhibition) at 10uM"
1,Cc1nc(CS(=O)(=O)c2ccccc2)cc(N2CCOCC2)n1,1.36%
2,COc1ccc(C(=O)NCc2ccon2)cc1OC1CCN(C(C)C)CC1,-45.6%
3,COc1cc(C(c2c(C)[nH][nH]c2=O)c2c(C)[nH][nH]c2=O)cc(OC)c1OC,12.2%
4,C/C(=N\Nc1ccc(Cl)c(Cl)c1)c1ccc(-n2ccnc2)cc1,-2.92%
5,CCOc1ccc(S(=O)(=O)N2CCCCC2)c2ccccc12,4.71%
6,O=c1[nH]c2cc3c(cc2cc1CN(Cc1nnnn1C1CCCC1)C1CCCC1)OCCO3,-7.16%
7,COc1ccc(NC(C)=O)cc1S(=O)(=O)NC(Cc1ccccc1)C(=O)O (stereo not drawn),6.11%
8,COc1cccc(CN2CCCCC2C(=O)O)c1 (stereo not drawn),8.05%
9,CCOC(=O)C1=C(COC(=O)CCOc2ccc(OC)cc2)NC(=O)NC1C (stereo not drawn),-4.43%
10,Cc1nnc(SCc2nc3ccccc3[nH]2)s1,-11.2%
11,O=C1SC(c2ccccc2)=C/C1=C\N1CCCCC1,-14%
12,O=C(CCSc1ccccc1)N1CCN(c2ccccc2)CC1,-19.9%
13,COc1ccc(N2C(=O)CC(NC3CC3)C2=O)cc1 (stereo not drawn),12.5%
14,CCOc1ccc(N(CC(=O)Nc2ccccc2F)S(=O)(=O)c2c(C)[nH]c(=O)[nH]c2=O)cc1,15.2%
15,Cc1ccsc1C(=O)C1CCCN(Cc2cnc(N3CCOCC3)s2)C1 (stereo not drawn),-33.1%
16,O=C(Oc1c(CN2CCOCC2)cc(Cl)c2cccnc12)c1ccccc1F,-8.38%
17,COCCCC1CCN(C(=O)c2cc(COc3ccc(C)nc3)on2)CC1,0.809%
18,CN1CCN(C(=O)CC2C(=O)NCCN2Cc2ccc(-c3ccccc3)cc2)CC1 (stereo not drawn),2.25%
19,CC(=O)c1cccc(NC(=O)COC(=O)CC2CC3CCC2C3)c1 (stereo not drawn),-15.6%
20,O=C(Nc1ccc(F)cc1F)Nc1csc2ccccc12,19.2%
21,O=C(Nc1ccnc(-c2cccnc2)n1)c1cccs1,-23%
22,COc1ccc(NC(=O)C2C3C=CC4(O3)C2C(=O)N(CCN2CCCCC2C)C4C(=O)NC2CCCC(C)C2C)cc1 (stereo not drawn),-22.4%

row,Structure (SMILES),"hERG current change (%, negative = inhibition) at 10uM"
1,CN1C(=O)NC(c2cccc(O)c2)C(C(=O)c2cccs2)C1(O)C(F)(F)F (stereo not drawn),9.55%
2,O=c1c2cnn(-c3ccccc3)c2nc(-c2cccs2)n1-c1cccc(Cl)c1,13.6%
3,Cc1ccc(-c2csc(N3CCN(c4cc5c(cc4Cl)nc(-c4ccncc4)n5CCN4CCCCC4)CC3)n2)cc1,10.5%
4,CN1CCN(C(=O)/C(=C/c2cn(S(=O)(=O)N(C)C)c3ccccc23)NC(=O)c2ccccc2Cl)CC1,20.2%
5,O=C(OCC(=O)N1CCCCC1)c1cc2ccccc2cc1O,4.06%
6,O=C(Cc1ccccc1)Nc1cccc(NC(=O)c2ccccc2)c1,10.2%
7,Nc1ccc(S(=O)(=O)[O-])c[nH+]1,4.6%
8,COc1ccc(C2(c3ccc(OC)cc3)NC(=O)N(CC(=O)N(C)c3ccccc3)C2=O)cc1,14.7%
9,CC(C)Oc1ccc(S(=O)(=O)N2CCCCC2)cc1NC(=O)CN1C(=O)NC2(CCCC2)C1=O,-2.87%
10,Cc1ccc(S(=O)(=O)CCC(=O)OCC(=O)NCc2ccccc2)cc1,-10.8%
11,Cc1nn(C(=O)c2ccco2)c(C)c1Sc1ccc(Br)cc1,-4.64%
12,CC1(C)CC(NC(=O)CCc2nnc(CCCCc3ccccc3)o2)CCO1 (stereo not drawn),13.8%
13,O=C(CCl)Nc1sccc1C(=O)c1ccccc1,4.71%
14,O=C1CS/C(=C\[N+](=O)[O-])N1c1ccccc1,-2.96%
15,CC(=O)Nc1ccc(S(=O)(=O)NCC2CCC(C(=O)NCCC3=CCCCC3)CC2)cc1 (stereo not drawn),-7.16%
16,O=S1(=O)CC(NCc2ccccc2)C(Nc2ccc(Cl)cc2)C1 (stereo not drawn),-14.4%
17,Clc1cccc(-c2nc3nc4ccccc4nc3n2Cc2ccco2)c1,-28.9%
18,CCC(C(=O)Nc1cc(C(=O)O)ccc1C)c1ccccc1 (stereo not drawn),15%
19,CC(C)n1c(CN(C)Cc2ccccc2)nc2c1c(=O)n(C)c(=O)n2C,11.4%
20,CS(=O)(=O)c1ccc(C(=O)OCC(=O)N2CCCc3ccccc32)cc1,-2.78%
21,NS(=O)(=O)c1ccc(O)c(NC(=O)c2ccc([N+](=O)[O-])o2)c1,10.8%
